Laboratory results from publication PMC4336329 (PLoS ONE, 2015).
Among all 310,000 compounds or so, about 2,200 (0.71%) showed an effect of 50% or more. The effect is printed as a negative number. Some of the results follow.

Biological target: human ether-à-go-go-related gene (hERG) potassium channel (human, UniProt Q12809)
Test: primary screen, population patch clamp on CHO cells stably expressing hERG

human ether-à-go-go-related gene (hERG) potassium channel, sequence (Q12809 whole entry, looked up): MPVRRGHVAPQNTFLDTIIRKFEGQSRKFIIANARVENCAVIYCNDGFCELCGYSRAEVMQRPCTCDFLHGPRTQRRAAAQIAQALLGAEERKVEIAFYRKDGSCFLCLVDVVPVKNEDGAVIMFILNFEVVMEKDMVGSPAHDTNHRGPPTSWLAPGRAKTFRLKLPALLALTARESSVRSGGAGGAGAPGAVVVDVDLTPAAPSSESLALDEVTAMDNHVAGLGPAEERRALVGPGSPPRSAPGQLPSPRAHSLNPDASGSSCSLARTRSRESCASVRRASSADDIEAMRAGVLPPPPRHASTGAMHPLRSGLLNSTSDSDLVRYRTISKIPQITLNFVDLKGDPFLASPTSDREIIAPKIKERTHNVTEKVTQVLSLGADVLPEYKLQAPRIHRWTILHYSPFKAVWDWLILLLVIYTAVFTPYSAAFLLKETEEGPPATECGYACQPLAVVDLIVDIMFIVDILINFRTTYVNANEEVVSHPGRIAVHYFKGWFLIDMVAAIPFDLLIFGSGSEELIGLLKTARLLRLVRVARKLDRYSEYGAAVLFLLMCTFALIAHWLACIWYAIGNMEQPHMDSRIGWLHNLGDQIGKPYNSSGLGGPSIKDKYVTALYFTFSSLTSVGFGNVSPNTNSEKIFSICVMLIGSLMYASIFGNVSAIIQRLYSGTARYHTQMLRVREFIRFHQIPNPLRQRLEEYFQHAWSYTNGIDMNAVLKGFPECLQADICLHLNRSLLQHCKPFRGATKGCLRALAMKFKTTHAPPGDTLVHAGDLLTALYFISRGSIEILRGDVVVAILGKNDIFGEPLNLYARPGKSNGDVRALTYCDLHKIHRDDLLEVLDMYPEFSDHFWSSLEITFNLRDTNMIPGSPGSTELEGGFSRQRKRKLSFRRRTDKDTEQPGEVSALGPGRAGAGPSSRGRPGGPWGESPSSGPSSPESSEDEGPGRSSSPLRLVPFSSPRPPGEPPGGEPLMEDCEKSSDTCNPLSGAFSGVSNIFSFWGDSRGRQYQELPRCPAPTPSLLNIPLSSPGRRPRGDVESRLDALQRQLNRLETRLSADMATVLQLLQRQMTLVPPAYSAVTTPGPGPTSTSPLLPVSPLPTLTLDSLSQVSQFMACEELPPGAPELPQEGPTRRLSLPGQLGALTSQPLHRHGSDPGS

Row | Structure (SMILES) | hERG current change (%, negative = inhibition) at 1uM
1 | Cc1cccc(Nc2nc(N3CCCC3)nc(N3CCCC3)n2)c1 | 1.05%
2 | COc1ccc(NC(=O)Cn2c(CCC(=O)O)ccc2-c2ccc(C)cc2)cc1 | 4.96%
3 | COc1cccc(CNC(=O)CCn2ccc3cc(S(=O)(=O)N4CCC(C)CC4)ccc32)c1 | 11.4%
4 | CCc1ccc(-c2nc(C(N)=O)c3[nH]c(=O)n(-c4ccccc4OC)c3n2)cc1 | 10.2%
5 | COC(=O)C1=C(C)NC(=O)NC1c1cccc(OC)c1OCc1ccccc1 (stereo not shown) | -3.16%
6 | Cc1cccc(-c2oc3ccccc3c2C#CCCO)c1 | 10.3%
7 | COC(=O)c1c(NC(=O)c2ccco2)sc2c1CCN(C(C)=O)C2 | 5.74%
8 | CSc1ccc(CN(C)C(=O)c2cccc(S(=O)(=O)N3CCN(Cc4ccccc4)CC3)c2)cc1 | 11.2%
9 | CCOc1ccc(OCC)c(NC(=O)C2CCCN(c3ncccn3)C2)c1 (stereo not shown) | -1.69%
10 | Cc1n[nH]c(C)c1S(=O)(=O)N(CC(=O)N1CCc2ccccc21)c1ccc(C(C)C)cc1 | 10.9%
11 | O=C(NCCc1ccccc1)C1CCC(CNS(=O)(=O)c2cccc3cccnc23)CC1 (stereo not shown) | -5.64%
12 | COc1cc(C(=O)NCc2nnc(SCC(=O)Nc3cccc(C(F)(F)F)c3)o2)cc(OC)c1OC | 7.07%
13 | O=C(CNC(=O)c1ccccc1)Oc1cccc(Cl)c1 | 14.9%
14 | CCN1CCN(C(=O)c2ccc3c(=O)n(Cc4ccccc4OC)c(=S)[nH]c3c2)CC1 | 10.9%
15 | COc1ccc(C(=O)Nc2cccc3c2CCCC3)c(OC)c1 | 2.57%
16 | COCCn1c(=N)c(S(=O)(=O)c2ccc(F)cc2)cc2c(=O)n3ccccc3nc21 | 11.2%
17 | COc1ccc(CN(C)C(=O)C2CCN(C(=O)Nc3ccccc3)CC2)cc1OC | 10.9%
18 | Cc1cc(-c2ccc3c(c2)COc2c4ccccc4nn2-3)on1 | 15.2%
19 | Cc1nc(N2CCC(C)CC2)c2c(C)c(C(=O)O)sc2n1 | 11%
20 | Cc1ccc(CN2CCCC(C(=O)c3cccc(C(F)(F)F)c3)C2)o1 (stereo not shown) | 11.3%
21 | CC(=O)Nc1ccc(NC(=O)c2nc(S(=O)(=O)Cc3cccc(C)c3)ncc2Cl)cc1 | 10.4%
22 | COc1ccc(N2CCN(S(=O)(=O)c3cc4c5c(c3)C(C)C(=O)N5CCC4)CC2)cc1 (stereo not shown) | -4.27%
23 | CC(C)OC(=O)CN1C(=O)C(=O)c2ccccc21 | 3.47%
24 | COc1cccc(CC2(CO)CCCN(C(=O)c3cc[n+]([O-])cc3)C2)c1 (stereo not shown) | 6.73%
25 | N#Cc1cnn(-c2nc3sc4c(c3c(=O)[nH]2)CCCC4)c1N | 14.6%
26 | C[C@@H](CN1C(=O)C(=O)NC[C@@H]1Cc1ccc(O)cc1)NC(=O)Cc1ccccc1 | 10.6%
27 | CC(=O)Nc1ccc(S(=O)(=O)NNC(=O)CCc2ccccc2)cc1 | 12.5%
28 | CCOC(=O)N1CCN(C(=O)CN(Cc2ccc(Cl)cc2)S(=O)(=O)c2ccc(C)cc2)CC1 | -23.2%

Row | Structure (SMILES) | hERG current change (%, negative = inhibition) at 1uM
29 | CCS(=O)(=O)N1CCC(C(=O)NCc2ccc(OC)cc2)CC1 | 3.22%
30 | O=C(c1ccc(O)cc1)c1ccc(O)cc1O | -0.267%
31 | Fc1ccc(Nc2ncnc3sc4c(c23)CCC4)cc1F | 1.54%
32 | Cc1ccccc1NC(=O)Cn1nnc2sc3c(c2c1=O)CC(C)(C)OC3 | 7.21%
33 | CCC(=NC(CC)CO)C1=C(O)CC(C)(C)CC1=O (stereo not shown) | 4.54%
34 | Cc1cc(C)cc(OCCCOc2cccc3cccnc23)c1 | 8.05%
35 | CC(C)Oc1cccc(C(=O)C2CCCN(Cc3ccon3)C2)c1 (stereo not shown) | 5.65%
36 | Cc1cc(C)n(CC(=O)N/N=C/c2ccc([N+](=O)[O-])s2)n1 | 18.5%
37 | Cc1ccc(-c2nn(C)c(=O)c3ccccc23)cc1CNC(=O)/C=C/c1ccccc1 | 2.2%
38 | CNC(=S)NCCc1cc2c(OC)ccc(OC)c2[nH]c1=O | 11.5%
39 | COc1cccc(-c2nc(CS(=O)CC(=O)NCCCOC(C)C)c(C)o2)c1 (stereo not shown) | 6.94%
40 | CC(C)(C)NC(=O)CN1CCCN(C(=O)COc2ccc(Cl)c3ccccc23)CC1 | -4.55%
41 | CCOc1cc(N2CCOCC2)c(OCC)cc1NC(=O)C(C)C | 0.613%
42 | S=c1[nH]nc(COc2ccccc2)n1/N=C/c1ccco1 | 12.4%
43 | CS(=O)(=O)N(CC(=O)NCc1ccncc1)c1cc(Cl)ccc1Cl | 14.6%
44 | CC(C)OC(=O)CSc1nc2ncccc2[nH]1 | 5.34%
45 | O=c1c(-c2ccc(O)cc2)coc2cc(OC3OC(CO)C(O)C(O)C3O)ccc12 (stereo not shown) | 18.4%
46 | COc1ccc(Cl)cc1C(=O)N1CCN=C1SC | 19.4%
47 | COc1ccc(CN(C)C(=O)Cn2ccsc2=N)cc1OC.Cl | 18.6%
48 | CC1=C(C)CC(C(=O)N2CCN(Cc3ccccc3)CC2)C(C(=O)O)C1 (stereo not shown) | 7.43%
49 | COc1ccc2cc(C(C)C(=O)Nc3cccc(S(=O)(=O)N(C)C)c3)ccc2c1 (stereo not shown) | 9.48%
50 | COC(=O)c1sc(S(=O)(=O)N2CCCCC2C(=O)O)c(C(=O)OC)c1C (stereo not shown) | 11%
51 | CCc1ncc(CN2CCCCC2C(=O)Nc2ccc(Oc3ccccc3)nc2)cn1 (stereo not shown) | 3.16%
52 | CCOc1nc(NCc2ccco2)nc(Nc2ccccc2F)n1 | 13.4%
53 | CC(c1nnc(SCC(=O)c2c(N)n(C)c(=O)n(C)c2=O)n1-c1ccc(Cl)cc1)N(C)C (stereo not shown) | 19.1%
54 | O=C(O)C1CC=CCC1C(=O)NCCc1cccc(Cl)c1 (stereo not shown) | 7.36%
55 | Cn1c(=O)c2c(ncn2CC(=O)OCC(=O)NCc2ccccc2Cl)n(C)c1=O | 17.7%
